Reference: the supplement of paper PMC11417369
± gives the standard deviation of the averaged measurements. The list shows a part of the results.

system: PfAP2-G AP2 domain (GST-tagged); test: gcPBM binding intensity (ln(normalized median fluorescence intensity)); higher = stronger DNA binding
Method in brief: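 GST-tagged P. falciparum DNA-binding domains produced in E. coli were incubated for 1 h on an Agilent 4 × 180k array of primer-extended double-stranded 36-bp intergenic genomic probes with negative controls. Binding intensity is the highest Masliner-normalised natural-log median intensity across replicate spots of either probe orientation, with bound protein detected by Alexa488 anti-GST antibody at 488 nm.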

| Sequence | gcPBM binding intensity (ln) |
| --- | --- |
| TTTATACAATAAAATGCATGCAAGTATCTATTTTAT [TGCATGCA_site210] | 10 ± 0.28 |
| AAATTGGGTACAAATACACACACATATATATATTAA [CACACA_site8745] | 11.2 ± 0.89 |
| TATAATGAACATATGTGTACATATATTTTTTAAATT [XGTACX_site8736] | 11.4 ± 0.72 |
| AAAAAACAAAAAAAAAAAAAAATAATACAATATAAT [CACACA_negctrl_site1630] | 9.49 ± 0.099 |
| ACCATATAAATAAACACACACACACCGATATATATA [CACACA_site5310] | 10 ± 0.16 |
| GCACAACATATATTATCACACACATATATATATATA [CACACA_site8619] | 10.3 ± 0.56 |
| CGCGAAGTAGCATTCACACACAGCAAAATATAAATA [CACACA_site7608] | 10.02 ± 0.035 |
| CAAAAGAATATATGTAGTACATGTTGTAGATAATAT [XGTACX_site1044] | 11.5 ± 0.93 |
| TTAATATGAAATAAATGTACATAATACATAATAAAA [XGTACX_site6194] | 11.1 ± 0.67 |
| AACACGCGCGGACACACACACACACCCACATATATA [CACACA_site5252] | 11.4 ± 0.89 |
| GTTTTTAGTATTTTTTGTACTTAATACATAGCCTTA [XGTACX_site7318] | 11 ± 0.65 |
| AATTGAAAAATATATAAGAAGAAATATATATATGTT [GTGCAC_negctrl_site97] | 9.8 ± 0.15 |
| AAAATAAGTAATTACTAATATATAAATTAATAATTA [CACACA_negctrl_site1602] | 9.62 ± 0.014 |
| AATATAAATTAATTTACACACTAAAAAATATATATA [CACACA_site3778] | 9.915 ± 0.035 |
| ATTTATATCTCCATATGTTCAAAACTTTCACAAATA [TGCATGCA_negctrl_site108] | 10 ± 0.12 |
| TATTAACAAATTTATGTGCACTGAGGACAAATATAT | 11 ± 0.59 |
| CCTTAATATTTTTGAAGTACATATTTATTTTACAAG [XGTACX_site3049] | 11.4 ± 0.86 |
| AAATAGAAGAAATATGCACACATACATTGAAATGTT [CACACA_site7996] | 9.95 ± 0.028 |
| TTTTCTTCATAAATGCTGCACTGGTTTAAGCATGAT | 9.83 ± 0.099 |
| TTTATTAATAAACACACACACACACCCAAAATAAAA [CACACA_site7966] | 10.4 ± 0.37 |
| AAAGAAAAAAAAATTACACACATATATTATATATAT [CACACA_site3211] | 9.72 ± 0.071 |
| AAATCAGAACCTATTTGTACATATACAAAAATGATT [XGTACX_site2421] | 10.8 ± 0.52 |

| Sequence | gcPBM binding intensity (ln) |
| --- | --- |
| TATGTATTCATATGTTGTACATTATATATAATAAGT [XGTACX_site6589] | 11.2 ± 0.79 |
| AGCACACAAAAAAAAAAAAAAAAAAAAAAAGGAATG [GTGCAC_negctrl_site73] | 10.03 ± 0.092 |
| ATTTTTTTAAGATAAGAAAAATAAAGTGTGGATATT [XGTACX_negctrl_site476] | 10.2 ± 0.21 |
| TTTTAATTAGCTAGACGTACAATAATATACAAATAT [XGTACX_site6068] | 11.5 ± 0.95 |
| CATATGTAGGGAACAATATAATATGCTTTGAATATG [GTGCAC_negctrl_site524] | 10.2 ± 0.14 |
| TTCCTTATTATTATTTTACACACGTCCTAATAAGAG [CACACA_site8364] | 10.4 ± 0.4 |
| GCTTGTACATTTTTAAAAAATGACTTCGAAAGGAAT [CACACA_negctrl_site453] | 11 ± 0.69 |
| TTTATGCATAGAGAAACATGCAAGAAAGATGCAAAA [TGCATGCA_site726] | 10 ± 0.13 |
| ATATATTTATATATATGTACATATTATGTTAAGAAA [XGTACX_site1111] | 11.1 ± 0.58 |
| ATTATGTATACATAAACACACATATTTATAAAAAAA [CACACA_site6261] | 10.2 ± 0.16 |
| TGTATATATATCTCAGTGCATTGCAAATTAAAAATT [GTGCAC_site9646] | 9.88 ± 0.13 |
| ATACTCACGTGACACACACACAATATAAATAAATAT [CACACA_site7862] | 10.4 ± 0.4 |
| AAAAAAAAACAGAAAACACACAAATTATCTTATAAT [CACACA_site4326] | 9.61 ± 0.3 |
| TATAATAATCTAATCTGTAGTTTTTTTTTTTTTTTT [CACACA_negctrl_site1206] | 9.99 ± 0.14 |
| GGCTTTTTTTAATATGCACACATATATTTTATATAT [CACACA_site8647] | 10.1 ± 0.11 |
| ATATTACTATATTATTGTACGTTAAAAAAAAAAAAT [XGTACX_site8734] | 11.3 ± 0.8 |
| ATAAAAATAAACATACGTACTTACACGAATATACAT [XGTACX_site5989] | 11.1 ± 0.65 |
| CTTGAAAAAATAAAAACACACAATGTGTTTTTGAAT [CACACA_site3283] | 9.71 ± 0.11 |
| TTAGATTTAAATATCATACACACTTTATATATAATA [CACACA_site959] | 9.74 ± 0.14 |
| TTTCTAAATAATTATAATGAATCTGCAAACAAGCAT [XGTACX_negctrl_site391] | 9.57 ± 0.028 |
| TTATATTAAAAAAGATGTACGTTTAGGAAAAATATA [XGTACX_site7456] | 11.2 ± 0.69 |
| AATAAATAAATAAATAAATATATATATATATATATA [GTGCAC_negctrl_site224] | 9.88 ± 0.67 |
